About 230 (0.21%) of roughly 110,000 compounds showed an effect of 50% or more. This is one part of the list.
Each molecule was assayed against DPAP1 (Plasmodium falciparum, UniProt Q8IIJ9) (assay: primary screen, percent inhibition; read by cleavage of a fluorogenic dipeptide substrate; higher = more effect of the substance).
Set-up: species or system P. falciparum D10 trophozoite lysates; single well
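Also: 30 min substrate incubation versus DMSO and 10 µM JCP410 controls.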

DPAP1, sequence (Q8IIJ9 whole entry, looked up): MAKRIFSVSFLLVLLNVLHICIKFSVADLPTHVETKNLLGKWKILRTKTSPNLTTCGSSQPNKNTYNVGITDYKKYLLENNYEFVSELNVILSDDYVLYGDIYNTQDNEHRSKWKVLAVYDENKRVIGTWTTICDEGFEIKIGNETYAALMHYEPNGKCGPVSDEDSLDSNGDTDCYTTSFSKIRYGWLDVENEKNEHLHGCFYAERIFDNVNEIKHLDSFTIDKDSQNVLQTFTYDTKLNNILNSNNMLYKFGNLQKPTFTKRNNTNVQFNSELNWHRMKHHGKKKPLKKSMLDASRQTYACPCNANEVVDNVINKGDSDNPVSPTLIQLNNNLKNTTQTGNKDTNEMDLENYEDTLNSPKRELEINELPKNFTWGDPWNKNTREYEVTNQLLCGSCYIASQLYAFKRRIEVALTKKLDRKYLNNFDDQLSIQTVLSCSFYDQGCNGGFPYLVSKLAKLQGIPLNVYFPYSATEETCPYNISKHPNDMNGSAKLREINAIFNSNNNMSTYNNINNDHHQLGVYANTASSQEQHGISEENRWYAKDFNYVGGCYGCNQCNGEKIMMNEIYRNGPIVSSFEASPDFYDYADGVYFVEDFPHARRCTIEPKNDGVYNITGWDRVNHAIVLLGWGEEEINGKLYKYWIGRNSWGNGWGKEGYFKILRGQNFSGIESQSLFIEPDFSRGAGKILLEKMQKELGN

| Compound | % Inhibition @ 10 uM [%] |
| --- | --- |
| O=C(NCC1CCCO1)c1ccc(N2C(=O)C3CCCCC3C2=O)cc1 (stereo not shown) | 1.21 |
| COc1ccc(N/C(=N/S(=O)(=O)c2ccccc2)C(Cl)(Cl)Cl)cc1 | -1.38 |
| CCN(CC)CCn1c(=O)c2nc[nH]c2n(C)c1=O | -1.22 |
| CN(CC(=O)NCCC1=CCCCC1)S(=O)(=O)c1ccc(F)cc1 | 1.03 |
| O=C(CSc1nc2c(c(=O)n1Cc1ccccc1)SCC2)NCc1ccc2c(c1)OCO2 | 0.292 |
| COc1ccc2nc(C)c3c(c2c1)OC(C)C3 (stereo not shown) | -4.32 |
| CCOC(=O)C1CCCCN1CC(c1ccccc1)c1ccccc1 (stereo not shown) | -2.34 |
| CN(C)CC1Cc2ccccc2O1 (stereo not shown) | 2.26 |
| CC(C(=O)NCc1cccc(Cl)c1)n1sc2ccccc2c1=O (stereo not shown) | -2.94 |
| O=C(O)c1cc(C(=O)O)cc(N2C(=O)c3ccccc3C2=O)c1 | 3.25 |
| Cc1ccc(-c2nn3c(C4COc5ccccc5O4)nnc3s2)cc1C (stereo not shown) | 2.89 |
| Cc1nc2c(c(C)c1CCC(=O)NCC(C)c1ccccc1)c(=O)n(C)c(=O)n2C (stereo not shown) | -3.1 |
| CN(C)CC(CN(C)C)OCc1ccccc1 | 3.65 |
| Cc1ccc2nc3c(cc(C(=O)NC4CCCCC4)c(=N)n3C3CCCCC3)c(=O)n2c1 | 1.97 |
| CC(C(=O)O)N1C(=O)C2C3CC(C2C1=O)C1C(c2ccc(Cl)cc2)c2sc(O)nc2SC31 (stereo not shown) | 3.24 |
| Cc1oc(-c2ccccc2F)nc1CS(=O)(=O)CC(=O)NCCCc1ccccc1 | -0.138 |
| COC(=O)C#CC(CC(C)C)NC(=O)[C@H](CC(C)C)NC(=O)[C@H](CC(C)C)NC(=O)OCc1ccccc1 (stereo partly shown) | 0.079 |
| COc1cc(-c2nc(O)nc3ccc(Cl)cc23)cc(OC)c1OC | 1.19 |
| CCOc1ccc(NC(=O)c2ccc(NS(=O)(=O)c3cccc(F)c3)cc2)cc1 | -5.3 |
| O=C(CN(Cc1ccc(Cl)cc1)S(=O)(=O)c1ccc(Cl)cc1)Nc1ccccc1 | 4.42 |
| CC(=O)Nc1nc(C)nc(-c2ccccc2)c1C(C)=O | -3.97 |
| CC1=C(C(=O)Nc2ccc(Br)cc2)C(c2ccc(Cl)cc2Cl)NC(=O)N1C (stereo not shown) | 1.43 |
| c1ccc(-c2cn(-c3ccccc3)c3ncnc(NCC4CCCO4)c23)cc1 (stereo not shown) | 1.26 |
| CN1C(=O)/C(=C/c2ccc(OCC(=O)O)cc2)S/C1=N/c1ccc(Cl)cc1 | 21.2 |
| CCOC(=O)C1=C(N)OC2=C(C(=O)CC(C)(C)C2)C1c1cccc(F)c1 (stereo not shown) | 2.54 |

| Compound | % Inhibition @ 10 uM [%] |
| --- | --- |
| CC1CN(c2c3c(c(C#N)c4nc5ccccc5n24)CCC3)CC(C)O1 (stereo not shown) | 18.2 |
| Nc1ccc2nc(SCC(=O)Nc3ccccc3F)sc2c1 | 4 |
| CCOc1ccccc1NC(=O)C(CC)CC | 2.48 |
| CC(=O)C1=C(C)N=C(S)NC1c1ccccc1 (stereo not shown) | 1.7 |
| CC(=O)c1cc2c(cc1NC(=O)C(C)Oc1ccc(C)cc1)OCO2 (stereo not shown) | -2.76 |
| Cc1cc(/C=C2\SC(=O)NC2=O)c(C)n1C1CCCCC1 | -0.0494 |
| CC(NC(=O)c1nc(CS(=O)(=O)c2ccc(Cl)cc2)no1)c1ccccc1 (stereo not shown) | 1.76 |
| O=C(O)c1ccc(N2CCC(c3ccccc3)=N2)cc1 | 3 |
| CC1CCN(C(=O)C(Cc2ccccc2)NS(=O)(=O)c2cccc3nsnc23)CC1 (stereo not shown) | -3.23 |
| CC(C)(C)c1coc2cc3oc(=O)c4ccccc4c3cc12 | -0.808 |
| CCc1ccc(OCC(=O)Nc2nccs2)cc1 | -3.85 |
| COc1cccc(NC2=C(Cl)C(=O)N(c3ccc(C)cc3)C2=O)c1 | -2.77 |
| CC(C)[C@H](NC(=O)c1ccc(-c2csc(N3CCN(C)CC3)n2)cc1)C(=O)NCC#N | -1.61 |
| COCCNC(=O)CCc1c(C)nc2c3c(C)cc(C)nc3nn2c1C | -2.45 |
| CCCC1CCC(C2CCC(C(N)=O)CC2)CC1 (stereo not shown) | 4.16 |
| Cc1nc2cc(-c3ccccc3)nn2c(C)c1CCC(=O)N1CCN(c2ccccn2)CC1 | -4.1 |
| CCOc1nc(Nc2ccc(Cl)cc2)nc(N2CCCCC2)n1 | 4.74 |
| COc1ccc(/C=C/c2nc3scc(-c4cccs4)c3c(=O)o2)cc1 | -4.11 |
| Cc1nc(N)nc(O)c1CC(=O)O | 2.1 |
| Cc1sc2c(sc(C)[n+]2CCCS(=O)(=O)O)c1C | -3.36 |
| Cc1cccc(Cn2cc(/C=C3/NC(=O)NC3=O)c3ccccc32)c1 | -1.28 |
| CCc1c(O)n(C2CCCCC2)c(SC)nc1=O | 3.35 |
| CC(=O)/N=C(\Nc1nc(C)cc(C)n1)Nc1ccccc1Cl | -1.08 |
| CCOC(=O)N1CCN(C(=O)c2cc(-c3ccc(OCC)cc3)nc3ccccc23)CC1 | 4.36 |
| O=C(/C=C/c1ccc2c(c1)OCO2)N1CCN(CCN2C(=O)c3cccc4cccc(c34)C2=O)CC1 | 13.3 |

| Compound | % Inhibition @ 10 uM [%] |
| --- | --- |
| O=c1cc(-c2ccccc2)c2ccc3c(c2o1)CN(Cc1ccc2c(c1)OCO2)CO3 | 0.895 |
| O=C(NCC1CCCO1)C1CCN(S(=O)(=O)c2cccc3cccnc23)CC1 (stereo not shown) | -3.58 |
| Cn1c(=O)n(CC(=O)O)c(=O)c2c1nc1n2CCS1 | 0.758 |
| O=C(O)c1cccc(-n2cnnn2)c1 | -0.687 |
| CC(=O)c1cccc(NC(=O)CN2CCOCC2)c1 | -3.24 |
| O=C(NCC1CCCO1)C1c2ccccc2Oc2ccccc21 (stereo not shown) | -3.49 |
| CCCn1c(SCc2nc(-c3ccc(OC)cc3)no2)nnc1-c1ccccc1 | -4.02 |
| CC1(C)C=Cc2c(c3c(c4c(=O)c(-c5ccc(O)cc5)coc24)OC(C)(C)CC3)O1 | -1.5 |
| CC1(C)CC2(CC(c3cccs3)c3cc(Cl)c(O)cc3O2)NC(=S)N1 (stereo not shown) | -4.49 |
| COc1ccc(-n2ncc(C(=O)NC3CCCC3)c2C2CCN(C(=O)OC(C)(C)C)CC2)cc1 | -5.57 |
| O=S1(=O)N=C(NCC(O)COc2ccccc2)c2ccccc21 (stereo not shown) | 3.35 |
| O=C(CSCc1cccc(Br)c1)Nc1ccc(F)cc1 | 2.38 |
| CCOc1ccc(C2C=C(c3cccnc3)Nc3nnnn32)cc1OC (stereo not shown) | -3.23 |
| Nc1ccccc1SC(CC(=O)c1ccc(Br)cc1)c1cccc(Br)c1 (stereo not shown) | -5.38 |
| N#CC1=C(N)Oc2[nH]nc(-c3ccccc3)c2C1c1cccc(C(F)(F)F)c1 (stereo not shown) | 5.83 |
| CC1NC(=O)C(C#N)=C(SCc2ccccc2)S1 (stereo not shown) | -1.72 |
| Cc1oc(-c2cccc(Cl)c2)nc1CN1CCC(C(=O)NCCCN2CCN(C)CC2)CC1 | -1.05 |
| O=C(c1ccc(Cl)c([N+](=O)[O-])c1)N1CCOCC1 | -2.03 |
| COc1ccc(C2Nn3c(C)nnc3SC2C(=O)N2CCOCC2)cc1 (stereo not shown) | 0.0289 |
| CCOC(=O)c1c(Cl)nc2ccccc2c1O | -3.93 |
| O=c1c(Cc2ccccc2)c(N2CCCCC2)nc2n1CCCS2 | 2.21 |
| CCCCNc1nc2ccccc2c2nc(-c3cccnc3)nn12 | 0.981 |
| O=C(O)c1ccc(-n2cnc3cccnc32)cc1 | 0.0198 |
| N#Cc1ccc(-c2nc3cc(Cl)c(F)cc3[nH]2)cc1 | 1.84 |
| CN1C(=O)c2[nH]nc(-c3ccccc3)c2C1c1cccc(O)c1 (stereo not shown) | -2.84 |

| Compound | % Inhibition @ 10 uM [%] |
| --- | --- |
| COc1cc(OC)c(C2NC(S)=NC(C)=C2C(C)=O)cc1OC (stereo not shown) | -7.35 |
| CC(Nc1nc2ccccc2n2nnnc12)C12CC3CC(CC(C3)C1)C2 (stereo not shown) | 5.84 |
| CC(C)C[C@H](NS(=O)(=O)Cc1ccccc1)C(=O)NCC#N | 0.174 |
| CCOC(=O)N1CCN(C(=O)Cn2nc(CC)n3c(cc4sccc43)c2=O)CC1 | -1.58 |
| COP(=O)(OC)C(Nc1ccc([N+](=O)[O-])cc1)c1ccc(Cl)cc1 (stereo not shown) | 1.7 |
| COc1ccc(C)cc1-n1cnc2cc(C(=O)NCc3ccco3)ccc21 | 2.8 |
| COC(=O)C1=C(C)N=C(C)/C(=C(/O)OC)C1c1ccc(Br)cc1 (stereo not shown) | -2.42 |
| CC(C)(C)C(=O)Nc1cccc(NC(=O)C(C)(C)C)n1 | -10 |
| Cc1nc2c(c(C)c1CCC(=O)NCCC1=CCCCC1)c(=O)n(C)c(=O)n2C | 5.32 |
| O=C(OCc1nc2ccccc2s1)c1cccs1 | -3.34 |
| N#CCc1ccc(NC(=O)c2ccc(COc3ccc(Cl)cc3)o2)cc1 | 3.57 |
| Cc1ccsc1-c1nc(CSCC(=O)NCc2cccnc2)c(C)o1 | 3.99 |
| CCOC(=O)c1c(C)[nH]c(C)c1S(=O)(=O)NCCN1CCCCCC1 | -7.53 |
| O=C1C(=O)N2C(=C1C(=O)N1CCCCC1)c1ccccc1CC21CCCC1 | 1.93 |
| COc1ccccc1CNC(=O)c1cc(O)nc2ccc(S(=O)(=O)N3CCCC(C)C3)cc12 (stereo not shown) | -1.34 |
| CCN(CC)C(=O)c1sc(N)c(C(=O)OC)c1C | 13.7 |
| CCN(Cc1nc(-c2cccc(C)c2)no1)C(=O)NC1CCCCC1 | -7.24 |
| Cc1ccc(-n2cc(-c3ccccc3)n(-c3ccccc3)c2=O)cc1 | -3.49 |
| COc1ccc2c(c1)N(S(=O)(=O)c1ccccc1)CCC2=O | -3.23 |
| COc1ccc(CN(C)CCN(C)C)cc1Br | -1.48 |
| CS(=O)(=O)N(CC(=O)Nc1ccc(Cl)cc1)c1ccc(Br)cc1 | -3.94 |
| O=C(CN(Cc1ccccc1Cl)S(=O)(=O)c1ccc(Cl)cc1)Nc1ccc2c(c1)OCO2 | -1.27 |
| CCC1CCC(N2CCCC(C(N)=O)C2)CC1 (stereo not shown) | -3.8 |
| CCC(=O)NC1=NC(=O)/C(=C/c2ccc(OCc3ccccc3F)cc2)S1 | -2.32 |
| COc1ccc2c(Sc3ccccc3)c(C(=O)N3CCC(C(N)=O)CC3)[nH]c2c1 | -5.95 |

Reference: paper PMC6919601, “Identification of Plasmodium dipeptidyl aminopeptidase allosteric inhibitors by high throughput screening” (PLoS ONE, 2019)
